The supplement of paper PMC10441789
This is one part of the list. Antibody binding of pooled human sera (four to six donors per pool; dilution not stated) to peptides of the Trypanosoma cruzi antigen TSSA on microarrays. Quantile-normalised fluorescence in arbitrary units, mean of duplicate arrays; higher = more binding. No active / inactive call. The uninfected pools are read here as the healthy donors of the same country. The strongest signals lie near the top of the scale (about 60,000).

Each sequence was assayed on pooled sera of chronic Chagas disease patients, Argentina (assay: antibody binding signal (normalised fluorescence) (arbitrary fluorescence units); higher = stronger serum antibody binding to peptide).
Procedure: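 Microarray of 15-residue peptides over residues 30-55 of Trypanosoma cruzi TSSAII, each with 1 to 10 substitutions at naturally variable positions, probed with one serum pool per country.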
With PPSGTDKKPATGGTP the antibody binding signal was 21900.
Sequence EKKPAAGEAPSQSGA has an antibody binding signal of 1630.
For STPPSGTDNKAATGG, the antibody binding signal was 48800.
Work on SGTEKKTATGGAPSQ yielded an antibody binding signal of 4630.
For GKDNKTATGGTPSPS, the antibody binding signal was 723.
With SGKDKKAATGGAPSP the antibody binding signal was 901.
In the case of TEKKAAAGEAPSQSG, the antibody binding signal is reported as 1230.
In the case of PSGKEKKAATGEAPS, the antibody binding signal is reported as 18900.
Work on KDNKPAAGGTPSPPG yielded an antibody binding signal of 183.
GTENKPATGETPSQS showed an antibody binding signal of 42500.
GTEKKTAAGEAPSPS gave an antibody binding signal of 557.
Sequence PSGTDKKTATGGTPS has an antibody binding signal of 3440.
SGKDKKAAAGETPSQ showed an antibody binding signal of 544.
GKEKKTAAGEAPSQP gave an antibody binding signal of 1980.
For KDKKAAAGGTPSQSG, the antibody binding signal was 187.
In the case of TEKKPAAGEAPSPSG, the antibody binding signal is reported as 1040.
Work on DNKPATGEAPSPPGA yielded an antibody binding signal of 45400.
In the case of TDNKTAAGEAPSPPG, the antibody binding signal is reported as 415.
In the case of GKDKKAATGGTPSQP, the antibody binding signal is reported as 527.
In the case of KKAATGEAPSQPGAS, the antibody binding signal is reported as 9150.
DKKAATGEAPSPPGA gave an antibody binding signal of 21300.
KDKKAATGETPSPPG showed an antibody binding signal of 453.
Sequence KDKKTATGEAPSPSG has an antibody binding signal of 4750.
KENKPATGGTPSQPG gave an antibody binding signal of 373.
Work on PPSGKDKKPATGGTP yielded an antibody binding signal of 1160.
In the case of TENKPAAGEAPSQSG, the antibody binding signal is reported as 42800.
Sequence TDKKPATGGTPSQPG has an antibody binding signal of 929.
In the case of PPSGTEKKTATGGAP, the antibody binding signal is reported as 26100.
Sequence STPPSGTDNKPATGE has an antibody binding signal of 42600.
Work on GKENKPAAGEAPSPP yielded an antibody binding signal of 4390.
For GTDNKPAAGGTPSPP, the antibody binding signal was 2050.
PPSGKDKKPATGGAP showed an antibody binding signal of 1530.
In the case of NKTATGEAPSQPGAS, the antibody binding signal is reported as 13100.
Sequence GTDKKPATGGAPSPP has an antibody binding signal of 893.
Sequence GKENKPATGGAPSQS has an antibody binding signal of 6610.
GTDNKTAAGGAPSPP was tested, and the antibody binding signal was 248.
SGKENKTATGEAPSP showed an antibody binding signal of 14800.
Sequence TDNKPAAGETPSQPG has an antibody binding signal of 4780.
For GTDKKAAAGETPSQP, the antibody binding signal was 343.
For GTDNKAATGETPSQP, the antibody binding signal was 4740.
